Drawing on publication PMC10669843, this text covers binding for 3 substances.

Amino acid sequences for entries named in this document (tags omitted). Residues count along the entry.
UniProt P10888, residues 23-169: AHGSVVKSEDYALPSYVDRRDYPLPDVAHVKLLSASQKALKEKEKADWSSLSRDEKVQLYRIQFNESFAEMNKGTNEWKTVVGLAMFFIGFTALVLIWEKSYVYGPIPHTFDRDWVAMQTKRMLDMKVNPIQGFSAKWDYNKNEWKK
UniProt P12075, residues 32-129: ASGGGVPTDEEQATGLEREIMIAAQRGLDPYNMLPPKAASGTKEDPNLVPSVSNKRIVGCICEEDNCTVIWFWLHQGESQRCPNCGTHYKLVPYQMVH

No constants are given. Whether binding was seen depends on the method and setting. Binding seen in cells or lysates may run through a third protein. Some binding calls cover weakened binding; strength is not graded here.

Assay [1] addresses cytochrome c oxidase subunit IV (rat (endogenous in rat brain mitochondria)) (UniProt P10888). The assay can be described thus: co-IP; 2 µg mouse monoclonal anti-CCOIV on protein-G agarose; crude NOS preparation in HEPES buffer with CHAPS (50 mM HEPES, 1 mM EDTA, 20 mM CHAPS, pH 7.5), 1 h at 4 °C; Western blot with C-terminal anti-NOS1.
Assay [2] has as its target brain mitochondrial nitric-oxide synthase (NOS; alpha NOS1 isoform) (rat (endogenous in rat brain mitochondria)) (UniProt P29476). The assay can be described thus: co-IP; rabbit polyclonal anti-NOS1 prebound to agarose beads; rat brain mitochondrial lysate with 4–6 nmol calcium ions/mg mitochondrial protein; Western blot for CCOIV and CCOI. (In general: Immunoblotting shows a protein as a band on a membrane.)

Assay [3] shares this target. The assay can be described thus: co-IP; rabbit polyclonal anti-NOS1 prebound to agarose beads; rat brain mitochondrial lysate with EGTA (4 mM in the results, 20–25 mM in the methods); Western blot for CCOIV and CCOI.
The target in assay [4] is cytochrome c oxidase subunit Vb (rat (endogenous in rat brain mitochondria)) (UniProt P12075). The assay can be described thus: co-IP; immunoprecipitation of CCOVb; no details told.
Assay [5] deals with biotinylated recombinant NOS1 (UniProt P29476). As to the kind of experiment: pull-down; biotinylated recombinant NOS1 on avidin-linked beads; brain mitochondrial inner membrane lysate with 5 mM EGTA during binding; washed with 1 M NaCl in acetate buffer; eluted with EGTA; Western blot; only the target purified.
Assay [6] has the same target. The assay can be described thus: pull-down; biotinylated recombinant NOS1 (150 µg) on avidin-linked beads; brain mitochondrial inner membrane lysate (1 mg) with 4–6 nmol calcium ions/mg protein, 1 h at 4 °C; washed with 1 M NaCl in acetate buffer pH 5.0; eluted with elution buffer (pH 2.8) with 5 mM EGTA; Western blot; only the target purified.

For the substance “brain mitochondrial nitric-oxide synthase (NOS; alpha NOS1 isoform) (from UniProt P29476 1-1429) (enzyme)”, the binding result in assay [1] is on record as “binds”.
As for “cytochrome c oxidase subunit I (from UniProt P05503 1-514)”, the binding result in assay [2] and in assay [3] was “no binding” each time.
In the case of “cytochrome c oxidase subunit IV (from UniProt P10888 23-169)”, the binding entry in assay [4] is listed as “binds”; in assay [2], “binds”; in assay [3], “no binding (condition: with 4 mM EGTA)”; in assay [5] it was “no binding (condition: with 5 mM EGTA during binding)”; in assay [6], “binds”.
